This is an account of results in the supplement of paper PMC9174493.

SMILES strings stand for the structures. Counter-ions that a name gives are not always drawn. The list shows a part of the results. Single values of this set are uncertain. Values with irradiation are relative to irradiated vehicle.

Assay [1] concerns A549-Dual. Description: NF-kB reporter (SEAP) activity, viability-corrected, relative to vehicle (fold change vs vehicle); higher = more activation of STING-IRF / NF-kB immune response reporter. The note with it: 10 µM.
The test system of assay [2] is A549-Dual. Description: ISRE reporter (Lucia luciferase) activity, viability-corrected, relative to vehicle (fold change vs vehicle); higher = more activation of STING-IRF / NF-kB immune response reporter. The conditions noted are these: 10 µM.
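Wherever NF-kB reporter (SEAP) activity, viability-corrected, relative to vehicle is given: viability correction based on the alamar blue assay, with concentrations leaving 10% survival or less dropped.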

Take `NC(=O)c1ccccc1O` [Salicylamide]: the NF-kB reporter in assay [1] (irradiation: 8 Gy/4 fr) came out at 0.833; in assay [1] (irradiation: none), 0.827. The ISRE reporter was 0.888 in assay [2] (irradiation: 8 Gy/4 fr) and 0.744 in assay [2] (irradiation: none).
The like results for `O=C(O)C(S)C(S)C(=O)O` (stereo not given) [Succimer] were, in that order, 0.641, 0.755, 0.6 and 0.629.
Consider `Nc1ccc(C(=O)O)cc1` [4-Aminobenzoic acid], for which the results for the NF-kB reporter in assay [1] (irradiation: 8 Gy/4 fr) and in assay [1] (irradiation: none) were 1.03 and 1.25, respectively. Further, the ISRE reporter was found to be 0.638 in assay [2] (irradiation: 8 Gy/4 fr) and 0.6 in assay [2] (irradiation: none).
For `O=C1NC(c2ccccc2)(c2ccccc2)C(=O)N1COP(=O)([O-])[O-].[Na+].[Na+]` [Fosphenytoin (disodium)] the same measures were 0.691, 0.856, 0.654 and 0.614.
Consider `CC1(C(=O)O)CCC2(C)CCC3(C)C(=CC(=O)C4C5(C)CCC(O)C(C)(C)C5CCC43C)C2C1` (stereo not given) [Enoxolone], for which the NF-kB reporter is 0.661 in assay [1] (irradiation: 8 Gy/4 fr) and 1.21 in assay [1] (irradiation: none). In addition, the values for the ISRE reporter in assay [2] (irradiation: 8 Gy/4 fr) and in assay [2] (irradiation: none) were 0.624 and 0.693, respectively.
The like results for `O=C(O)c1ccc(S(=O)(=O)N(Cl)Cl)cc1` [Halazone] were, in that order, 1.03, 1.2, 0.807 and 1.23.
For `O=C(Nc1ccc(Oc2ccc(Cl)cc2)c(Cl)c1)c1cc(I)cc(I)c1O` [Rafoxanide] the same measures were 0.599, 0.679, 0.416 and 0.455.
For `CCN1CCN(c2cc3c(cc2F)c(=O)c(C(=O)O)cn3C2CC2)CC1` [Enrofloxacin], the NF-kB reporter in assay [1] (irradiation: 8 Gy/4 fr) came out at 0.854; in assay [1] (irradiation: none), 1.16. The values for the ISRE reporter in assay [2] (irradiation: 8 Gy/4 fr) and in assay [2] (irradiation: none) were 0.78 and 0.888, respectively.
Turning to `CC(C)(C)NCC(O)COc1cccc2c1CCC(=O)N2.Cl` (stereo not given) [Carteolol HCl], the NF-kB reporter came to 1.69 in assay [1] (irradiation: 8 Gy/4 fr) and 1.25 in assay [1] (irradiation: none). Moreover, the ISRE reporter came out at 1.42 in assay [2] (irradiation: 8 Gy/4 fr) and 0.761 in assay [2] (irradiation: none).
The like results for `Nc1ccc(O)cc1` [4-Aminophenol] were, in that order, 1.2, 0.874, 1.2 and 0.783.
On to `CCCC(CCC)C(=O)OC1CC2CCC(C1)[N+]2(C)C.[Br-]` (stereo not given) [Anisotropine Methylbromide], for which the NF-kB reporter was 0.971 in assay [1] (irradiation: 8 Gy/4 fr) and 0.693 in assay [1] (irradiation: none). Also, the ISRE reporter was found to be 1.02 in assay [2] (irradiation: 8 Gy/4 fr) and 0.651 in assay [2] (irradiation: none).
The like results for `CCNC1CC(N)C(OC2OC(CN)=CCC2N)C(O)C1OC1OCC(C)(O)C(NC)C1O.CCNC1CC(N)C(OC2OC(CN)=CCC2N)C(O)C1OC1OCC(C)(O)C(NC)C1O.O=S(=O)(O)O.O=S(=O)(O)O.O=S(=O)(O)O.O=S(=O)(O)O.O=S(=O)(O)O` (stereo not given) [Netilmicin Sulfate] were, in that order, 1.01, 0.982, 0.747 and 0.986.
For `Cc1ncc([N+](=O)[O-])n1C` [Dimetridazole] the same measures were 0.831, 0.931, 0.758 and 0.694.
For `CCCNCC(O)COc1ccccc1C(=O)CCc1ccccc1` (stereo not given) [Propafenone HCl] the same measures were 0.676, 1.03, 0.848 and 1.26.
Regarding `COc1ccc(CNc2nc(N3CCCC3CO)ncc2C(=O)NCc2ncccn2)cc1Cl` (stereo not given) [Avanafil], the NF-kB reporter turned out to be 0.749 in assay [1] (irradiation: 8 Gy/4 fr) and 0.842 in assay [1] (irradiation: none). In addition, the ISRE reporter in assay [2] (irradiation: 8 Gy/4 fr) stood at 0.667; in assay [2] (irradiation: none) it was 0.805.
